Values quoted from earlier work, collected in paper PMC3930637.
Not every entry of the source has a single result; some have several. Only these are listed. An entry can have further records. Results that share an entry appear to be repeats on other runs, samples or individuals.

Target: HIV-1 capsid (CA) CA (Human immunodeficiency virus 1) (UniProt O93182)
Test: ITC

Chain of UniProt O93182 (O93182 133-363): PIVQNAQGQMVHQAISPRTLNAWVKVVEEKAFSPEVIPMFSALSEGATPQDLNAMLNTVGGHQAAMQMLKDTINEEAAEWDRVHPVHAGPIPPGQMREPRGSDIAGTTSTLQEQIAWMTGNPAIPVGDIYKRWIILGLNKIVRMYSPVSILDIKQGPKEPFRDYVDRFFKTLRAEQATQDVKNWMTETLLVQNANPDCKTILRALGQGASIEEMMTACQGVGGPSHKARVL

Nup358 cyclophilin homology domain (from UniProt P49792)
Kd: 16 µM and > 200 µM
